Some of the results follow.
Assays:
Assay in all cases: glycan array binding signal (z-score within array); higher = stronger binding
Settings in all cases: glycan notation: IUPAC condensed, linker removed
Fuc(a1-2)Gal = biological target: Fuc(a1-2)Gal
Procedure, shortened: (§1)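 Glycan array binding is given as a within-array Z-score, which can be read as non-binding when negative. The arrays, 3228 of them, came from the Consortium for Functional Glycomics database and were retained only where the protein sequence was available. Z-scores were averaged across arrays of the same protein sequence at different concentrations or buffers and across linkers.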

Fuc(a1-2)Gal(b1-3)GalNAc = biological target: Fuc(a1-2)Gal(b1-3)GalNAc
Procedure, shortened: as §1

[1] = biological target: Fuc(a1-2)Gal(b1-3)GalNAc(a1-3)[Fuc(a1-2)]Gal(b1-4)Glc
Procedure, shortened: as §1

[2] = biological target: Fuc(a1-2)Gal(b1-3)GalNAc(a1-3)[Fuc(a1-2)]Gal(b1-4)GlcNAc
Procedure, shortened: as §1

[3] = biological target: Fuc(a1-2)Gal(b1-3)GalNAc(b1-3)Gal
Procedure, shortened: as §1

[4] = biological target: Fuc(a1-2)Gal(b1-3)GalNAc(b1-3)Gal(a1-4)Gal(b1-4)Glc
Procedure, shortened: as §1

[5] = biological target: Fuc(a1-2)Gal(b1-3)GalNAc(b1-4)[Neu5Ac(a2-3)]Gal(b1-4)Glc
Procedure, shortened: as §1

Fuc(a1-2)Gal(b1-3)GlcNAc = biological target: Fuc(a1-2)Gal(b1-3)GlcNAc
Procedure, shortened: as §1

[6] = biological target: Fuc(a1-2)Gal(b1-3)GlcNAc(b1-2)Man(a1-3)[Fuc(a1-2)Gal(b1-3)GlcNAc(b1-2)Man(a1-6)]Man(b1-4)GlcNAc(b1-4)GlcNAc
Procedure, shortened: as §1

[7] = biological target: Fuc(a1-2)Gal(b1-3)GlcNAc(b1-2)Man(a1-3)[Fuc(a1-2)Gal(b1-3)GlcNAc(b1-2)Man(a1-6)]Man(b1-4)GlcNAc(b1-4)[Fuc(a1-6)]GlcNAc
Procedure, shortened: as §1

[8] = biological target: Fuc(a1-2)Gal(b1-3)GlcNAc(b1-3)Gal(b1-4)Glc
Procedure, shortened: as §1

[9] = biological target: Fuc(a1-2)Gal(b1-3)GlcNAc(b1-3)GalNAc
Procedure, shortened: as §1

[10] = biological target: Fuc(a1-2)Gal(b1-3)GlcNAc(b1-3)[Fuc(a1-2)Gal(b1-3)GlcNAc(b1-6)]GalNAc
Procedure, shortened: as §1

[11] = biological target: Fuc(a1-2)Gal(b1-3)GlcNAc(b1-3)[Gal(b1-4)GlcNAc(b1-6)]Gal(b1-4)Glc
Procedure, shortened: as §1

[12] = biological target: Fuc(a1-2)Gal(b1-3)GlcNAc(b1-3)[Neu5Ac(a2-6)Gal(b1-4)GlcNAc(b1-6)]Gal(b1-4)Glc
Procedure, shortened: as §1

[13] = biological target: Fuc(a1-2)Gal(b1-3)GlcNAc6S
Procedure, shortened: as §1

[14] = biological target: Fuc(a1-2)Gal(b1-3)[Fuc(a1-4)]GlcNAc
Procedure, shortened: as §1

[15] = biological target: Fuc(a1-2)Gal(b1-3)[Fuc(a1-4)]GlcNAc(b1-2)Man(a1-3)[Fuc(a1-2)Gal(b1-3)[Fuc(a1-4)]GlcNAc(b1-2)Man(a1-3)]Man(b1-4)GlcNAc(b1-4)GlcNAc
Procedure, shortened: as §1

[16] = biological target: Fuc(a1-2)Gal(b1-3)[Fuc(a1-4)]GlcNAc(b1-2)Man(a1-3)[Fuc(a1-2)Gal(b1-3)[Fuc(a1-4)]GlcNAc(b1-2)Man(a1-6)]Man(b1-4)GlcNAc(b1-4)[Fuc(a1-6)]GlcNAc(b1-4)[Fuc(a1-6)]GlcNAc
Procedure, shortened: as §1

[17] = biological target: Fuc(a1-2)Gal(b1-3)[Fuc(a1-4)]GlcNAc(b1-3)[Fuc(a1-3)[Gal(b1-4)]GlcNAc(b1-6)]Gal(b1-4)Glc
Procedure, shortened: as §1

[18] = biological target: Fuc(a1-2)Gal(b1-3)[Fuc(a1-4)]GlcNAc(b1-3)[Gal(b1-4)GlcNAc(b1-6)]Gal(b1-4)Glc
Procedure, shortened: as §1

[19] = biological target: Fuc(a1-2)Gal(b1-4)Fuc(a1-3)]GlcNAc(b1-2)Man(a1-3)[Fuc(a1-2)Gal(b1-4)[Fuc(a1-3)]GlcNAc(b1-2)Man(a1-6)]Man(b1-4)GlcNAc(b1-4)GlcNAc
Procedure, shortened: as §1

Fuc(a1-2)Gal(b1-4)Glc = biological target: Fuc(a1-2)Gal(b1-4)Glc
Procedure, shortened: as §1

Fuc(a1-2)Gal(b1-4)Glc6S = biological target: Fuc(a1-2)Gal(b1-4)Glc6S
Procedure, shortened: as §1

Fuc(a1-2)Gal(b1-4)GlcNAc = biological target: Fuc(a1-2)Gal(b1-4)GlcNAc
Procedure, shortened: as §1

[20] = biological target: Fuc(a1-2)Gal(b1-4)GlcNAc(b1-2)Man
Procedure, shortened: as §1

[21] = biological target: Fuc(a1-2)Gal(b1-4)GlcNAc(b1-2)Man(a1-3)[Fuc(a1-2)Gal(b1-4)GlcNAc(b1-2)Man(a1-6)]Man(b1-4)GlcNAc(b1-4)GlcNAc
Procedure, shortened: as §1

[22] = biological target: Fuc(a1-2)Gal(b1-4)GlcNAc(b1-2)Man(a1-3)[Fuc(a1-2)Gal(b1-4)GlcNAc(b1-2)Man(a1-6)]Man(b1-4)GlcNAc(b1-4)[Fuc(a1-6)]GlcNAc
Procedure, shortened: as §1

[23] = biological target: Fuc(a1-2)Gal(b1-4)GlcNAc(b1-2)[Fuc(a1-2)Gal(b1-4)GlcNAc(b1-4)]Man(a1-3)[Fuc(a1-2)Gal(b1-4)GlcNAc(b1-2)Man(a1-6)]Man(b1-4)GlcNAc(b1-4)GlcNAc
Procedure, shortened: as §1

[24] = biological target: Fuc(a1-2)Gal(b1-4)GlcNAc(b1-3)Gal(b1-4)GlcNAc
Procedure, shortened: as §1

[25] = biological target: Fuc(a1-2)Gal(b1-4)GlcNAc(b1-3)Gal(b1-4)GlcNAc(b1-2)Man(a1-3)[Fuc(a1-2)Gal(b1-4)GlcNAc(b1-3)Gal(b1-4)GlcNAc(b1-2)Man(a1-6)]Man(b1-4)GlcNAc(b1-4)GlcNAc
Procedure, shortened: as §1

[26] = biological target: Fuc(a1-2)Gal(b1-4)GlcNAc(b1-3)Gal(b1-4)GlcNAc(b1-3)Gal(b1-4)GlcNAc
Procedure, shortened: as §1

[27] = biological target: Fuc(a1-2)Gal(b1-4)GlcNAc(b1-3)GalNAc
Procedure, shortened: as §1

[28] = biological target: Fuc(a1-2)Gal(b1-4)GlcNAc(b1-3)[Fuc(a1-2)Gal(b1-4)GlcNAc(b1-6)]GalNAc
Procedure, shortened: as §1

[29] = biological target: Fuc(a1-2)Gal(b1-4)GlcNAc(b1-3)[Fuc(a1-3)[Gal(b1-4)]GlcNAc(b1-6)]Gal(b1-4)Glc
Procedure, shortened: as §1

[30] = biological target: Fuc(a1-2)Gal(b1-4)GlcNAc(b1-6)GalNAc
Procedure, shortened: as §1

[31] = biological target: Fuc(a1-2)Gal(b1-4)GlcNAc6S
Procedure, shortened: as §1

B1: AT5G01260(PC)(40) (Arabidopsis thaliana), Q9LFB0 (protein)
chain: MIGIGRTLTSSSPSKIILEDLPPGIYRYGTEIFTSVPRKTFHHIKFLRLDSAQSSRILKPVPLRSSSIKDSQVNVEDEEIEASNKTVRVRFQLRKECVFGEHFFIVGDDPVFGGLWDPETALPLNWSDGNVWTVDLDLPVGRLVEFKLLLKAQTGEILWQPGPNRALETWETNKTIRICEDWDNADLQMMIEEDFVPYTNISSIGSEDEDEVLGSVQQNSSVVAVENAGYVSDESAQNSSFSIQSEKTMEPSNGALTAREVIKEAMFTEEESPVLVPGLIPLSDLDNEQVEVINEGKAETFPEVDKKQEPKAERNKKAKVKAISLFEKSEQEAVKSVEQRQYNAVEEEQQRLETEPLGTPDVLFENDIQWGRRTLYKLLSNFRLF
Question: How did the “glycan array binding signal (z-score)” value (Fuc(a1-2)Gal) turn out when B1 was run?
Answer: Its value is 0.338.

Question: And the “glycan array binding signal (z-score)” value (Fuc(a1-2)Gal(b1-3)GalNAc)?
Answer: The value was 0.117.

Question: What about the “glycan array binding signal (z-score)” value [1] of the same binder?
Answer: The value was -0.535.

Question: And the “glycan array binding signal (z-score)” value [2]?
Answer: The value was -0.701.

Question: What about the “glycan array binding signal (z-score)” value [3] of the same binder?
Answer: The value was -0.3.

Question: And the “glycan array binding signal (z-score)” value [4]?
Answer: Its value is -0.368.

Question: And the “glycan array binding signal (z-score)” value [5]?
Answer: The value was 0.463.

Question: What about the “glycan array binding signal (z-score)” value (Fuc(a1-2)Gal(b1-3)GlcNAc) of the same binder?
Answer: The value was -0.85.

Question: What about the “glycan array binding signal (z-score)” value [6] of the same binder?
Answer: Its value is 0.426.

Question: And the “glycan array binding signal (z-score)” value [7]?
Answer: The value was 0.053.

Question: And the “glycan array binding signal (z-score)” value [8]?
Answer: Its value is 0.042.

Question: What about the “glycan array binding signal (z-score)” value [9] of the same binder?
Answer: The value was -0.024.

Question: What about the “glycan array binding signal (z-score)” value [10] of the same binder?
Answer: The value was -0.339.

Question: And the “glycan array binding signal (z-score)” value [11]?
Answer: Its value is -0.343.

Question: What about the “glycan array binding signal (z-score)” value [12] of the same binder?
Answer: The value was 0.28.

Question: What about the “glycan array binding signal (z-score)” value [13] of the same binder?
Answer: The value was -0.439.

Question: What about the “glycan array binding signal (z-score)” value [14] of the same binder?
Answer: The value was -0.288.

Question: And the “glycan array binding signal (z-score)” value [15]?
Answer: Its value is 0.142.

Question: And the “glycan array binding signal (z-score)” value [16]?
Answer: Its value is 0.621.

Question: What about the “glycan array binding signal (z-score)” value [17] of the same binder?
Answer: Its value is -0.659.

Question: What about the “glycan array binding signal (z-score)” value [18] of the same binder?
Answer: The value was 0.746.

Question: What about the “glycan array binding signal (z-score)” value [19] of the same binder?
Answer: Its value is 0.179.

Question: And the “glycan array binding signal (z-score)” value (Fuc(a1-2)Gal(b1-4)Glc)?
Answer: The value was -0.198.

Question: And the “glycan array binding signal (z-score)” value (Fuc(a1-2)Gal(b1-4)Glc6S)?
Answer: The value was -0.115.

Question: And the “glycan array binding signal (z-score)” value (Fuc(a1-2)Gal(b1-4)GlcNAc)?
Answer: The value was 0.165.

Question: And the “glycan array binding signal (z-score)” value [20]?
Answer: Its value is -0.48.

Question: And the “glycan array binding signal (z-score)” value [21]?
Answer: Its value is -0.183.

Question: What about the “glycan array binding signal (z-score)” value [22] of the same binder?
Answer: The value was -0.417.

Question: And the “glycan array binding signal (z-score)” value [23]?
Answer: The value was -0.149.

Question: And the “glycan array binding signal (z-score)” value [24]?
Answer: Its value is -0.638.

Question: And the “glycan array binding signal (z-score)” value [25]?
Answer: The value was 0.758.

Question: And the “glycan array binding signal (z-score)” value [26]?
Answer: The value was -0.994.

Question: And the “glycan array binding signal (z-score)” value [27]?
Answer: The value was 0.063.

Question: What about the “glycan array binding signal (z-score)” value [28] of the same binder?
Answer: The value was -0.44.

Question: What about the “glycan array binding signal (z-score)” value [29] of the same binder?
Answer: The value was -0.45.

Question: What about the “glycan array binding signal (z-score)” value [30] of the same binder?
Answer: Its value is 0.107.

Question: And the “glycan array binding signal (z-score)” value [31]?
Answer: The value was -0.603.

Reference: the supplement of paper PMC8728848
